Source: patent US20230103352A1 (ONCOIMMUNE, published 2023)

Target: T1, Siglec-10Fc (human, UniProt Q96LC7 17-546)
T1 construct: It was the analyte in the Biacore assay; not shown: Fc part of Siglec-10Fc
T1 sequence (looked up): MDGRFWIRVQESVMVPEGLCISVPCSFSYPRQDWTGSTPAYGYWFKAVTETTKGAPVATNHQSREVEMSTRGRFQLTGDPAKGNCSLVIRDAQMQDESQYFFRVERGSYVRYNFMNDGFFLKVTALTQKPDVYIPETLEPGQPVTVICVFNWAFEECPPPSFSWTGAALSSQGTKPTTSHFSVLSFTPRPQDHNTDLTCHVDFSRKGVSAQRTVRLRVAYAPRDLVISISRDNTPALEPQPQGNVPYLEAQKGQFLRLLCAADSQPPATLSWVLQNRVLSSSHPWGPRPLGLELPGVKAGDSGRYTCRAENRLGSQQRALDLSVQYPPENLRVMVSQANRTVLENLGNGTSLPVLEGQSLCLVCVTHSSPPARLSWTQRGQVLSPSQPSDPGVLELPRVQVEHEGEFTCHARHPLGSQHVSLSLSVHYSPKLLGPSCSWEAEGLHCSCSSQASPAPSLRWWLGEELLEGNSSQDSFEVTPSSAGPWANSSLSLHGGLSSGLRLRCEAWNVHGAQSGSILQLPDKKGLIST
Assay: Biacore (SPR): CD24Fc immobilized on the chip, Siglec-10Fc injected at different concentrations; plot of CD24Fc binding (RU) against Siglec 10 concentration (M) with fitted curve

Kd: 162 nM
B1: CD24Fc (Fc fusion)
chain: SETTTGTSSNSSQSTSNSGLAPNPTNATT[left out - human IgG1 Fc]
notes: 6'; also called CD24Ig; CD24IgG1
